# The other results are listed elsewhere or left out. Sequences were assembled here from the parent chain. Inactive controls read about 0.05.
# B1: TEV protease; numbered along this chain (parent)
# chain: MGESLFKGPRDYNPISSSICHLTNESDGHTTSLYGIGFGPFIITNKHLFRRNNGTLVVQSLHGVFKVKDTTTLQQHLVDGRDMIIIRMPKDFPPFPQKLKFREPQREERICLVTTNFQTKSMSSMVSDTSCTFPSGDGIFWKHWIQTKDGQCGSPLVSTRDGFIVGIHSASNFTNTNNYFTSVPKNFMELLTNQEAQQWVSGWRLNADSVLWGGHKVFMVKPEEPFQPVKEATQL
# Variants of: B1
# Assay: raw area under fraction-flipped curve 0-4 h after induction (AUC4h, not background-subtracted), DNA-recorder readout of cleavage of the substrate (dimensionless); higher = more cleavage of the substrate by the protease variant
# Conditions: temperature: 34 °C; time window: 0-4 h after rhamnose induction
# Protocol: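 In vivo DNA recorder in E. coli TOP10(DE3) ΔrhaA at 34 °C. Each TEVp single-site mutant (parent TEVp 0) is paired with a single-site variant of the 7-mer TEVs (canonical ENLYFQ|S). The substrate sits between flexible linkers in a Bxb1-sfGFP-TEVs-SsrA fusion, so cleavage stabilises Bxb1 and speeds flipping of a recombination array, read by NGS. The value is the raw area under the fraction-flipped curve over 0-4 h after rhamnose induction (AUC4h), with ≥20 reads per time point. It is not background-subtracted; inactive controls average about 0.047.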
# 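Further: Bxb1 expression induced with 0.2% (w/v) L-rhamnose at OD600 near 0.5, cultures sampled hourly, flipped fraction per protease–substrate barcode pair counted by paired-end Illumina sequencing.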
Variant,area with substrate EALYFQS,area with substrate ECLYFQS,area with substrate EDLYFQS,area with substrate EFLYFQS,area with substrate EGLYFQS,area with substrate EHLYFQS,area with substrate EILYFQS,area with substrate EKLYFQS,area with substrate ELLYFQS,area with substrate EMLYFQS,area with substrate EPLYFQS,area with substrate EQLYFQS,area with substrate ERLYFQS,area with substrate ESLYFQS,area with substrate ETLYFQS,area with substrate EVLYFQS,area with substrate EYLYFQS,area with substrate EELYFQS,area with substrate EWLYFQS
T72D,0.146,0.0963,0.129,0.103,0.0775,0.0901,0.08,0.0989,0.0727,0.105,0.116,0.108,0.0889,0.0979,0.115,0.0941,0.0564,–,–
V78C,0.126,0.0977,0.0579,–,0.0897,0.12,0.095,0.0998,0.101,0.14,0.104,0.108,0.0827,0.107,0.119,0.107,0.105,0.116,0.0768
Q75C,0.103,0.0905,–,–,0.0933,–,0.0886,0.0705,0.0876,0.12,0.144,0.104,0.0997,0.0965,–,0.0962,0.0949,–,0.0931
S60L,0.106,0.0665,0.126,–,0.0783,0.0756,0.111,0.0857,0.0806,0.0849,–,0.111,0.0765,0.0939,0.0824,0.0924,0.095,0.115,0.0833
I36R,0.0445,0.0437,–,–,–,–,0.0474,0.0423,0.0406,0.0597,0.0442,0.0468,0.0471,0.0582,0.0375,0.0447,–,0.0435,0.0604
I36E,0.0316,0.0544,–,0.0401,0.048,0.036,0.0352,0.0499,–,0.0397,0.0472,0.0519,0.0495,0.0502,–,0.0407,0.0557,0.0336,0.042
I36D,0.0404,0.0418,0.0427,–,0.0431,–,0.0376,–,0.05,0.0279,0.0456,0.0508,0.0502,0.0428,0.0478,0.0398,0.056,0.0264,0.0344
I36A,0.0817,0.0658,0.0914,–,0.0779,0.0791,0.0677,0.0776,0.0703,0.0837,0.0863,0.063,0.0674,0.0795,–,0.0623,–,0.0819,–
I36V,0.122,0.106,0.108,–,–,0.164,0.112,0.107,0.0874,–,0.0981,0.123,0.122,0.0904,–,0.0986,0.106,0.137,0.0959
P94G,0.138,0.113,–,0.12,0.133,–,0.0941,0.142,0.117,0.151,0.144,0.165,0.108,0.116,–,0.115,–,0.141,0.0928
L73Y,0.0761,0.0727,–,0.0653,0.0679,–,0.0779,0.0758,–,0.0849,–,0.0763,0.0818,0.0675,0.0695,0.0613,0.0716,0.0829,0.0683
L73P,0.0778,0.0557,0.0467,0.0663,0.0577,0.058,0.0505,0.0631,–,0.044,0.0494,0.0609,0.0718,–,0.0509,0.0577,0.0554,–,–
L56D,0.0427,–,0.0352,0.0444,0.0495,–,0.0406,0.0729,0.0326,0.0521,0.0465,0.0341,0.0479,0.0485,0.0436,0.0499,0.051,0.0453,0.0505
L56V,0.0793,–,0.107,–,0.0832,0.0661,0.0832,0.0876,0.0838,0.0875,0.0968,0.0938,0.0769,0.0965,0.0889,–,–,–,0.0718
G54R,0.0629,0.0642,–,0.0636,–,0.079,0.0643,0.0496,0.0567,–,0.0938,0.0747,0.0641,0.0721,–,0.0684,0.0786,0.0105,–
G54L,0.0605,0.0773,0.0707,–,0.0173,–,0.0597,–,0.0575,0.0614,0.0784,–,0.0642,0.063,0.0566,0.0711,0.062,0.077,0.0627
G54H,0.0733,0.0644,0.0767,–,0.0661,0.0758,0.0658,0.0747,0.0707,0.0612,0.102,0.065,0.0663,0.0755,–,0.0632,0.0932,–,0.0529
L77S,0.08,0.0807,0.0921,–,0.0621,0.0927,0.072,0.0811,0.062,0.0833,0.0687,0.0791,0.0785,0.0812,–,0.0675,–,0.0676,0.073
F49K,0.0576,0.0893,0.0628,–,0.0592,0.0533,–,0.0648,0.144,0.0543,0.0586,0.0571,0.0609,0.0481,–,–,0.0572,0.0533,0.0505
F49R,0.0537,0.0552,–,–,–,0.0511,0.0605,0.0578,–,0.0459,0.0665,0.0483,0.058,0.0571,–,0.0492,0.0579,–,0.0596
F49G,0.0548,0.0462,0.0577,–,0.05,0.0712,0.0616,0.0621,–,0.0476,0.0589,0.059,0.0561,0.0547,–,0.0493,–,0.0567,0.0618
F49V,0.091,–,–,0.0752,0.0719,–,0.0535,0.0585,0.0551,–,0.0723,–,–,0.0644,0.0545,0.0574,–,0.0615,0.0775
M83T,0.069,0.0675,0.0909,–,0.0794,0.0742,–,–,–,0.0859,0.0711,0.083,0.068,0.0742,–,0.0825,–,0.0797,–

# From the supplement of paper PMC12217912
